Measured values from the supplement of paper PMC11125491.
± gives the standard deviation of the averaged measurements. Growth of baker's yeast expressing single-residue variants of Pneumocystis jirovecii dihydrofolate reductase in 8.8 or 44 µM methotrexate (about 75% and 90% inhibition of the wild type). Selection coefficient per generation; 0 = like wild type, above 0 = less sensitive, below 0 = more sensitive or loss of function. No active / inactive call per row; the paper calls resistant above 0.220 (8.8 µM) or 0.243 (44 µM) together with a significance test. At 44 µM about 15% of codons end with one read or none, so the lowest values are floors (replicate rank correlation 0.74; 0.94 at 8.8 µM).

B1: UniProt A0EPZ9; numbered along this chain (parent)
chain: MDWQKSLTLIVALTLSRGIGLKNDLPWKLKSDMMFFSRVTSGLLVTRSTGQMNVVLMGRKTWESLPAHSRPLKNRINVVISRQEVLDLGGGAYHARSLDDALALLSQIYDSTSKIQLNRVFVIGGGELCKAAMEHSRLNRIIATVIHNEVDCDVFFPIDFRSSQSCLPWRKQDHSVLEAWVGSKVPQGKINENGFIYEFEMWIRDI

Variants of: B1
Test: selection coefficient against synonymous wild-type codons (log2 per generation); higher = faster growth than wild type
Settings: with Saccharomyces cerevisiae carrying the variant on a plasmid
Description: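 Pooled growth of yeast carrying single-residue variants of P. jirovecii dihydrofolate reductase (own DFR1 gene intact), two passages at 30 °C, three cultures, sequenced before and after. Codons with under 15 starting reads are left out; codons of one change are averaged.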

Variant | selection coefficient against synonymous wild-type codons (log2) (methotrexate 8.8 µM) | selection coefficient against synonymous wild-type codons (log2) (methotrexate 44 µM)
T46C | -0.059 ± 0.029 | -0.141 ± 0.054
T46D | 0.238 ± 0.037 | 0.217 ± 0.069
T46E | 0.2 ± 0.053 | 0.212 ± 0.044
T46F | -0.278 ± 0.065 | -0.358 ± 0.067
T46G | 0.0565 ± 0.033 | 0.063 ± 0.034
T46H | 0.035 ± 0.036 | -0.0505 ± 0.097
T46I | -0.31 ± 0.0099 | -0.161 ± 0.13
T46K | -0.0355 ± 0.044 | -0.00785 ± 0.041
T46L | -0.279 ± 0.16 | -0.198 ± 0.089
T46M | -0.274 ± 0.056 | -0.379 ± 0.035
T46N | 0.105 ± 0.012 | 0.0368 ± 0.035
T46P | 0.102 ± 0.032 | 0.0866 ± 0.062
T46Q | 0.0513 ± 0.013 | -0.0137 ± 0.055
T46R | -0.175 ± 0.074 | -0.0899 ± 0.1
T46S | 0.0148 ± 0.045 | 0.00518 ± 0.15
T46V | -0.243 ± 0.085 | -0.203 ± 0.11
T46W | -0.426 ± 0.14 | -0.262 ± 0.05
T46Y | -0.282 ± 0.12 | -0.234 ± 0.19
R47A | 0.0361 ± 0.051 | 0.0311 ± 0.075
R47C | -0.0851 ± 0.025 | -0.0665 ± 0.079
R47D | 0.11 ± 0.024 | 0.114 ± 0.039
R47E | 0.231 ± 0.0095 | 0.21 ± 0.04
R47F | -0.513 ± 0.13 | -0.271 ± 0.23
R47G | 0.0892 ± 0.039 | 0.109 ± 0.07

Variant | selection coefficient against synonymous wild-type codons (log2) (methotrexate 8.8 µM) | selection coefficient against synonymous wild-type codons (log2) (methotrexate 44 µM)
R47H | -0.00202 ± 0.07 | -0.0181 ± 0.1
R47I | -0.309 ± 0.095 | -0.365 ± 0.092
R47K | 0.0452 ± 0.034 | -0.12 ± 0.12
R47L | -0.273 ± 0.1 | -0.254 ± 0.12
R47M | -0.181 ± 0.095 | -0.226 ± 0.19
R47N | 0.118 ± 0.016 | 0.14 ± 0.044
R47P | 0.182 ± 0.047 | 0.174 ± 0.019
R47Q | 0.0731 ± 0.088 | 0.0231 ± 0.028
R47S | 0.0405 ± 0.047 | 0.0292 ± 0.074
R47T | -0.0194 ± 0.07 | -0.0695 ± 0.13
R47V | -0.279 ± 0.11 | -0.133 ± 0.07
R47W | -0.305 ± 0.013 | -0.283 ± 0.2
R47Y | -0.247 ± 0.037 | -0.26 ± 0.2
S48A | -0.00902 ± 0.045 | -0.0393 ± 0.085
S48C | -0.17 ± 0.053 | -0.123 ± 0.11
S48D | 0.153 ± 0.06 | 0.15 ± 0.093
S48E | 0.14 ± 0.019 | 0.0554 ± 0.084
S48F | -0.256 ± 0.12 | -0.147 ± 0.1
S48G | 0.0438 ± 0.015 | 0.013 ± 0.078
S48H | -0.0715 ± 0.017 | -0.0696 ± 0.052
S48I | -0.197 ± 0.025 | -0.169 ± 0.13
S48K | -0.0096 ± 0.033 | -0.0219 ± 0.073
S48L | -0.159 ± 0.044 | -0.19 ± 0.088
S48M | -0.105 ± 0.042 | -0.0109 ± 0.076

Variant | selection coefficient against synonymous wild-type codons (log2) (methotrexate 8.8 µM) | selection coefficient against synonymous wild-type codons (log2) (methotrexate 44 µM)
S48N | 0.0625 ± 0.045 | 0.0332 ± 0.068
S48P | -0.0912 ± 0.043 | -0.058 ± 0.075
S48Q | -0.000565 ± 0.027 | -0.0584 ± 0.091
S48R | -0.0942 ± 0.045 | -0.0675 ± 0.12
S48T | -0.0137 ± 0.05 | -0.0723 ± 0.074
S48V | -0.16 ± 0.039 | -0.0783 ± 0.095
S48W | -0.337 ± 0.1 | -0.205 ± 0.18
S48Y | -0.326 ± 0.12 | -0.232 ± 0.14
T49A | 0.00333 ± 0.022 | -0.0674 ± 0.13
T49C | -0.146 ± 0.064 | -0.157 ± 0.16
T49D | 0.0419 ± 0.016 | -0.0293 ± 0.061
T49E | 0.0825 ± 0.037 | 0.0404 ± 0.11
T49F | -0.256 ± 0.036 | -0.0682 ± 0.14
T49G | -0.0474 ± 0.039 | -0.0333 ± 0.068
T49H | -0.158 ± 0.042 | -0.147 ± 0.056
T49I | -0.131 ± 0.093 | -0.158 ± 0.1
T49K | -0.11 ± 0.089 | -0.0931 ± 0.12
T49L | -0.126 ± 0.086 | -0.0749 ± 0.087
T49M | -0.0881 ± 0.0036 | 0.0037 ± 0.092
T49N | -0.102 ± 0.091 | -0.0933 ± 0.14
T49P | -0.0117 ± 0.041 | -0.11 ± 0.073
T49Q | -0.0375 ± 0.032 | 0.0934 ± 0.1
T49R | -0.167 ± 0.11 | -0.132 ± 0.12
T49S | -0.0114 ± 0.049 | -0.114 ± 0.16

Variant | selection coefficient against synonymous wild-type codons (log2) (methotrexate 8.8 µM) | selection coefficient against synonymous wild-type codons (log2) (methotrexate 44 µM)
T49V | -0.0294 ± 0.07 | -0.0725 ± 0.09
T49W | -0.452 ± 0.23 | -0.295 ± 0.076
T49Y | -0.163 ± 0.17 | -0.207 ± 0.029
G50A | -0.122 ± 0.06 | -0.118 ± 0.095
G50C | -0.0957 ± 0.041 | -0.0637 ± 0.086
G50D | 0.0931 ± 0.035 | 0.091 ± 0.072
G50E | 0.0403 ± 0.043 | -0.0226 ± 0.038
G50F | -0.326 ± 0.042 | -0.159 ± 0.03
G50H | -0.0998 ± 0.028 | -0.146 ± 0.042
G50I | -0.0516 ± 0.02 | -0.0297 ± 0.099
G50K | -0.0875 ± 0.022 | -0.059 ± 0.028
G50L | -0.192 ± 0.05 | -0.203 ± 0.17
G50M | -0.212 ± 0.057 | -0.248 ± 0.1
G50N | -0.00225 ± 0.017 | -0.108 ± 0.049
G50P | -0.132 ± 0.062 | -0.135 ± 0.067
G50Q | -0.0112 ± 0.037 | -0.106 ± 0.12
G50R | -0.1 ± 0.039 | -0.0955 ± 0.089
G50S | -0.0451 ± 0.049 | 0.0223 ± 0.071
G50T | -0.057 ± 0.016 | -0.0568 ± 0.17
G50V | -0.0301 ± 0.061 | -0.00888 ± 0.064
G50W | -0.326 ± 0.13 | -0.174 ± 0.093
G50Y | -0.185 ± 0.02 | -0.315 ± 0.059
Q51A | 0.00729 ± 0.035 | -0.0681 ± 0.12
Q51C | -0.0719 ± 0.12 | -0.000704 ± 0.033

Variant | selection coefficient against synonymous wild-type codons (log2) (methotrexate 8.8 µM) | selection coefficient against synonymous wild-type codons (log2) (methotrexate 44 µM)
Q51D | -0.0651 ± 0.043 | -0.035 ± 0.08
Q51E | 0.0218 ± 0.073 | 0.0496 ± 0.044
Q51F | -0.272 ± 0.11 | -0.231 ± 0.068
Q51G | 0.0123 ± 0.031 | -0.0363 ± 0.096
Q51H | -0.102 ± 0.058 | -0.0458 ± 0.087
Q51I | -0.175 ± 0.049 | -0.00824 ± 0.088
Q51K | -0.0167 ± 0.071 | 0.0418 ± 0.074
Q51L | -0.079 ± 0.059 | -0.0472 ± 0.073
Q51M | -0.105 ± 0.034 | -0.0946 ± 0.069
Q51N | -0.11 ± 0.046 | -0.125 ± 0.14
Q51P | -0.185 ± 0.082 | -0.105 ± 0.1
Q51R | -0.0955 ± 0.07 | -0.112 ± 0.14
Q51S | -0.0494 ± 0.062 | -0.0961 ± 0.086
Q51T | -0.0455 ± 0.089 | -0.09 ± 0.043
Q51V | -0.097 ± 0.031 | -0.099 ± 0.17
Q51W | -0.193 ± 0.04 | -0.0524 ± 0.16
Q51Y | -0.313 ± 0.18 | -0.24 ± 0.084
M52A | -0.135 ± 0.069 | -0.198 ± 0.085
M52C | -0.088 ± 0.011 | -0.0761 ± 0.11
M52D | -0.0962 ± 0.054 | -0.0779 ± 0.24
